# Reference: US20220144960A1 (NANJING LEGEND BIOTECH, published 2022)
# Positions count from the first letter of the chain named.
# T1: recombinant human CD30 extra cellular domain (ECD) protein (human, UniProt P28908 19-379)
# T1 construct: Bought from R&D systems; also called rhCD30; human CD30 ECD
# T1 sequence: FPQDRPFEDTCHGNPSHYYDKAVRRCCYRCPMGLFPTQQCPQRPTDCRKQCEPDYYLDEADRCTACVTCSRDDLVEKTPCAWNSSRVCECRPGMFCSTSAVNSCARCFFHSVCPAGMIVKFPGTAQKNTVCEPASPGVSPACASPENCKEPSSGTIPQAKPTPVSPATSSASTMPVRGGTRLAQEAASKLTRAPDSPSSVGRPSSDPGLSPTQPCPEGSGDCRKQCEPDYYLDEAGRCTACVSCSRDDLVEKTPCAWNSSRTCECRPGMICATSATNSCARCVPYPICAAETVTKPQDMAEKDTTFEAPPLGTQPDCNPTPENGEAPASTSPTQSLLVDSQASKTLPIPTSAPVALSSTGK
# B1: AS48542 HCAb (camel sdAb, human CD8α hinge, human IgG1 Fc fragment) (Fc fusion)
# chain: QMQLVESGGGSVQAGETLRLSCTTSAFTFDGPDMAWYRQAPGNECVLVSIISADGRTYYADSVKGRFTISRDNAKNTVFLNLNSLQPEDTAVYYCALDPRKNCRGGYCCANWGPGTQVTVSSTTTPAPRPPTPAPTIASQPLSLRPEACRPAAGGAVHTRGLDFAC[human IgG1 Fc omitted]
# notes: HCAb, crude protein from HEK293 medium
# B2: AS48542VH5 HCAb (humanized sdAb, human CD8α hinge, human IgG1 Fc fragment) (Fc fusion)
# chain: EVQLVESGGGLVQPGGSLRLSCATSAFTFDGPDMAWYRQAPGKGCELVSIISADGRTYYADSVKGRFTISRDNSKNTVYLQMNSLRAEDTAVYYCALDPRKNCRGGYCCANWGQGTLVTVSSTTTPAPRPPTPAPTIASQPLSLRPEACRPAAGGAVHTRGLDFAC[human IgG1 Fc omitted]
# notes: as for B1
# B3: AS48542VH12 HCAb (humanized sdAb, human CD8α hinge, human IgG1 Fc fragment) (Fc fusion)
# chain: B2 chain with S74A, A87P
# notes: as for B1
# B4: AS48463 HCAb (camel sdAb, human CD8α hinge, human IgG1 Fc fragment) (Fc fusion)
# chain: QVHLMESGGGSVQAGETLRLSCTASGFTFANSDMGWYRQAPGNACELVSIISSHGGTTYYVDSVKGRFTISRHNAENTVYLRMTSLKPEDTALYYCVADPRSNCRGGYCCGYWGPGTQVTVSSTTTPAPRPPTPAPTIASQPLSLRPEACRPAAGGAVHTRGLDFAC[human IgG1 Fc omitted]
# notes: as for B1
# B5: AS48463VH4 HCAb (humanized sdAb, human CD8α hinge, human IgG1 Fc fragment) (Fc fusion)
# chain: EVQLLESGGGLVQPGGSLRLSCAASGFTFANSDMGWYRQAPGKGCELVSIISSHGGTTYYVDSVKGRFTISRDNSKNTLYLQMNSLRAEDTAVYYCVADPRSNCRGGYCCGYWGQGTLVTVSSTTTPAPRPPTPAPTIASQPLSLRPEACRPAAGGAVHTRGLDFAC[human IgG1 Fc omitted]
# notes: as for B1
# B6: AS48463VH11 HCAb (humanized sdAb, human CD8α hinge, human IgG1 Fc fragment) (Fc fusion)
# chain: B5 chain with S75A, A88P
# notes: as for B1
# B7: AS53445VH11 HCAb (humanized sdAb, human CD8α hinge, human IgG1 Fc fragment) (Fc fusion)
# chain: QVQLVESGGGVVQPGGSLRLSCAASGYIFCMGWFRQAPGKGREGIATIYTGGDSTYYDDSVKGRFTISRDNAKNTLYLQMNSLRPEDTAVYYCAAGGQECYLTNWVSYWGQGTLVTVSSTTTPAPRPPTPAPTIASQPLSLRPEACRPAAGGAVHTRGLDFAC[human IgG1 Fc omitted]
# notes: as for B1
# B8: AS53445 HCAb (camel sdAb, human CD8α hinge, human IgG1 Fc fragment) (Fc fusion)
# chain: B7 chain with V11S, P14A, A23T, G41A, L76V, R84K, V90M, L114Q
# notes: as for B1
# B9: AS53445VH4 HCAb (humanized sdAb, human CD8α hinge, human IgG1 Fc fragment) (Fc fusion)
# chain: B7 chain with R42L, A72S, P85A
# notes: as for B1
# B10: AS53574VH4 HCAb (humanized sdAb, human CD8α hinge, human IgG1 Fc fragment) (Fc fusion)
# chain: EVQLVESGGGLVQPGGSLRLSCAASGYIYSSNCMGWFRQAPGKGLEWVSRIHTGSGSTYYADSVKGRFTISRDNSKNTLYLQMNSLRAEDTAVYYCAAGRVVLGAVVCTNEYWGQGTLVTVSSTTTPAPRPPTPAPTIASQPLSLRPEACRPAAGGAVHTRGLDFAC[human IgG1 Fc omitted]
# notes: as for B1
# B11: AS47863 HCAb (camel sdAb, human CD8α hinge, human IgG1 Fc fragment) (Fc fusion)
# chain: QVQLEESGGGSVQAGETLRLSCTASGSTFGDSDMGWYRQAPGNACELVSIISSDGRTYYVDSVKGRFTISQDNAVSTVYLQMNSLKPEDTGVYYCAADLRQYCRDGRCCGYWGQGTQVTVSSTTTPAPRPPTPAPTIASQPLSLRPEACRPAAGGAVHTRGLDFAC[human IgG1 Fc omitted]
# notes: as for B1
# B12: AS47863VH4 HCAb (humanized sdAb, human CD8α hinge, human IgG1 Fc fragment) (Fc fusion)
# chain: EVQLVESGGGLVQPGGSLRLSCAASGSTFGDSDMGWYRQAPGKGCELVSIISSDGRTYYVDSVKGRFTISQDNSKNTLYLQMNSLRAEDTAVYYCAADLRQYCRDGRCCGYWGQGTLVTVSSTTTPAPRPPTPAPTIASQPLSLRPEACRPAAGGAVHTRGLDFAC[human IgG1 Fc omitted]
# notes: as for B1
# B13: AS47863VH11 HCAb (humanized sdAb, human CD8α hinge, human IgG1 Fc fragment) (Fc fusion)
# chain: B12 chain with S74A, A87P
# notes: as for B1
# Target: T1, recombinant human CD30 extra cellular …
# Test: SPR Biacore, HCAb captured by anti-human Fc pAb, human CD30 concentration series, 1:1 fit
# Description: The camel and humanized sdAb sequences were fused with human CD8α hinge (SEQ ID NO: 62) and human IgG1 Fc fragment (SEQ ID NO:217), making the humanized HCAb sequences. The DNAs encoding these HCAbs were synthesized and inserted into pTT5 vector. HCAb expression plasmids were used to transfect HEK293 cells. Crude HCAb proteins secreted to the medium were subjected to SPR affinity measurement. Briefly, capturing antibody anti-human Fc pAb (GE healthcare) was immobilized on a Biacore™ CMS chip to approximately 6,000 RU using EDC-activated amine coupling chemistry. HCAbs of interest were captured for 300 seconds onto the sensorchip surface. Human CD30 (R&D systems, Cat. #6126-CD) flowed over the sensorchip surface at a series of increasing concentrations. Association and dissociation were monitored. Captured antibody and antigen were removed between cycles using 10 mM Glycine-HCl, pH 2.0 buffer in order to ensure a fresh binding surface for the next round. The resulting sensorgram was fit globally using a 1:1 binding model in order to calculate on- and off-rates (kₐ and kd, respectively), as well as the binding affinities (KD).
# The binding affinities of some humanized HCAbs were compared with their chimeric counterparts. Most of the humanized HCAbs retained their binding affinities (Table 7).
Binder,Kd [nM],koff [s⁻¹],kon [M⁻¹ s⁻¹]
B1,120,0.0027,22000
B2,260,0.0076,29000
B3,250,0.0068,27000
B4,270,0.02,75000
B5,480,0.049,100000
B6,510,0.042,82000
B7,210,0.049,230000
B8,78,0.019,240000
B9,200,0.03,150000
B10,2.8,0.00044,160000
B11,120,0.0037,32000
B12,450,0.02,44000
B13,460,0.024,52000
